From patent publication US20230099801A1, “RESTORATION OF T CELL ACTIVITY VIA THE CD39/CD73 AXIS” (INNATE PHARMA, priority 2017, published 2023)
Where a chain is given by its changes, count along the chain named.

B1: I-395: anti-CD39 antibody, VH SEQ ID NO: 14, VL SEQ ID NO: 15 (antibody, listed as Mus musculus, V domains shown)
VH: EVQLQQSGPELVKPGASVRMSCKASGYTFTDYNMHWVKKNHGKGLEWIGYINPNNGGTTYNQKFKGKATLTVNTSSKTAYMELRSLTSEDSAVYYCTRGGTRFASWGQGTLVTVSA
VL: NIVLTQSPASLAVSLGQRATISCRASESVDNYGISFMYWFQQKPGQPPKLLIYAASTQGSGVPARFSGSGSGTDFSLNIHPMEEDDTAMYFCQQSKEVPFTFGSGTKLEIK
B2: I-396: anti-CD39 antibody, VH SEQ ID NO: 22, VL SEQ ID NO: 23 (antibody, listed as Mus musculus, V domains shown)
VH: EVQLQQSGAELVKPGASVKLSCIVSGFNIKDTYINWVKQRPEQGLEWIGRIDPANGNTKYDPKFQGKATMTSDTSSNTAYLHLSSLTSDDSAVYYCARWGYDDEEADYFDSWGQGTTLTVSS
VL: B1 VL with N1D, Y38N, T57N, H80L, D85V, T87A, Q93H, F100W, S104G

Legend:
[1] = biological target: T1, CD39 mutant 5 (Homo sapiens, UniProt P49961, E143A/N99A/Q96A/R147E); experiment: Epitope mapping by flow cytometry on Hek-293T cells expressing CD39 mutant 5; format: binding; settings: substitutions Q96A
T1 construct: expressed in transfected cells; host or cells: HEK-293T cells
T1 sequence (P49961 1-510 Q96A/N99A/E143A/R147E): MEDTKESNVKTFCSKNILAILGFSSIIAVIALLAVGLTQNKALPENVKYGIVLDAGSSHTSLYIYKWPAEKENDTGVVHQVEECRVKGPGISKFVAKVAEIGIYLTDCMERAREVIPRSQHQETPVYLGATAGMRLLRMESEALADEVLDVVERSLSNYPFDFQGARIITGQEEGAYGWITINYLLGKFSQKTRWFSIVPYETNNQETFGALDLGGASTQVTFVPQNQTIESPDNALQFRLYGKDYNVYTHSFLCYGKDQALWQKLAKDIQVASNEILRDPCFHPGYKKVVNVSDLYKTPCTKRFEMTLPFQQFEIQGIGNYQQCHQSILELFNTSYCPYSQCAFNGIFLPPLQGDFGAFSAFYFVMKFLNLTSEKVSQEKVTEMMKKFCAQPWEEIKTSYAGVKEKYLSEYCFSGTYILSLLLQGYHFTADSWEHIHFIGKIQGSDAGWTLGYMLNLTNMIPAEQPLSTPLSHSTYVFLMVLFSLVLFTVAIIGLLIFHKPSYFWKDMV
Protocol: (§1) CD39 mutants were generated by PCR. The sequences amplified were run on agarose gel and purified using the Macherey Nagel PCR Clean-Up Gel Extraction kit (reference 740609). The purified PCR products generated for each mutant were then ligated into an expression vector, with the ClonTech InFusion system. The vectors containing the mutated sequences were prepared as Miniprep and sequenced. After sequencing, the vectors containing the mutated sequences were prepared as Midiprep using the Promega PureYield™ Plasmid Midiprep System. HEK293T cells were grown in DMEM medium (Invitrogen), transfected with vectors using Invitrogen's Lipofectamine 2000 and incubated at 37° C. in a CO2 incubator for 48 hours prior to testing for transgene expression.
(§2) In order to define the epitopes of anti-CD39 antibodies, we designed CD39 mutants defined by substitutions of amino acids exposed at the molecular surface over the surface of CD39.
(§3) Mutant 5 contains amino acid substitutions at residues Q96, N99, E143 and R147.
(§4) Mutants were transfected in Hek-293T cells, as shown in the table 1, using numbering of SEQ ID NO: 2. […] Mutant 19 includes substitutions at residues R138, M139 and E142.
Mutants were transfected in Hek-293T cells, as shown in the table 1, using numbering of SEQ ID NO: 2. […]

[2] = biological target: T2, CD39 mutant 19 (Homo sapiens, UniProt P49961, E142K/M139A/R138A); experiment: Epitope mapping by flow cytometry on Hek-293T cells expressing CD39 mutant 19; format: binding; settings: substitutions R138A
T2 construct: expressed in transfected cells; host or cells: HEK-293T cells
T2 sequence (P49961 1-510 R138A/M139A/E142K): T1 sequence (P49961 1-510 Q96A/N99A/E143A/R147E) with A96Q, A99N, R138A, M139A, E142K, A143E, E147R
Protocol: as §1, §2, §4
(§5) Mutants were transfected in Hek-293T cells, as shown in the table 1, using numbering of SEQ ID NO: 2. Dose-ranges of test antibodies (10-2.5-0.625-0.1563-0.0391-0.0098-0.0024-0.0006 μg/ml) are tested on the 20 generated mutants by flow cytometry.

[3] = biological target: T3, CD39 mutant 15 (Homo sapiens, UniProt P49961, D107A/E100A/K87A); experiment: Epitope mapping by flow cytometry on Hek-293T cells expressing CD39 mutant 15; format: binding; settings: substitutions K87A
T3 construct: expressed in transfected cells; host or cells: HEK-293T cells
T3 sequence (P49961 1-510 K87A/E100A/D107A): T1 sequence (P49961 1-510 Q96A/N99A/E143A/R147E) with K87A, A96Q, A99N, E100A, D107A, A143E, E147R
Protocol: as §1, with “expression. The targeted amino acid mutations in the table 1 below are shown using numbering of SEQ ID NO: 2.” for “expression.”
as §2, §5

[4] = system: other CD39 mutants of Table 1; experiment: Epitope mapping by flow cytometry on the other CD39 mutants of Table 1; format: binding, human
Protocol: as §1, with “expression. The targeted amino acid mutations in the table 1 below are shown using numbering of SEQ ID NO: 2.” for “expression.”
as §2, §3, §5

Molecule | binding to cells expressing mutant 5 of CD39 [1] | binding to cells expressing mutant 19 of CD39 [2] | binding to cells expressing mutant 15 of CD39 [3] | binding to any other mutant of the 20 CD39 mutants [4]
B1 | loss of binding | loss of binding |  | 
B2 |  |  | loss of binding | without loss of binding
